The supplement of paper PMC3334620
The full ranking holds about 33,000 sequences; the median of “E-score (-0.5 to 0.5)” is about -0.054, and the highest 2% start at about 0.35. This is one part of the list.

Target: T1, Stb5 (UniProt P38699)
T1 sequence: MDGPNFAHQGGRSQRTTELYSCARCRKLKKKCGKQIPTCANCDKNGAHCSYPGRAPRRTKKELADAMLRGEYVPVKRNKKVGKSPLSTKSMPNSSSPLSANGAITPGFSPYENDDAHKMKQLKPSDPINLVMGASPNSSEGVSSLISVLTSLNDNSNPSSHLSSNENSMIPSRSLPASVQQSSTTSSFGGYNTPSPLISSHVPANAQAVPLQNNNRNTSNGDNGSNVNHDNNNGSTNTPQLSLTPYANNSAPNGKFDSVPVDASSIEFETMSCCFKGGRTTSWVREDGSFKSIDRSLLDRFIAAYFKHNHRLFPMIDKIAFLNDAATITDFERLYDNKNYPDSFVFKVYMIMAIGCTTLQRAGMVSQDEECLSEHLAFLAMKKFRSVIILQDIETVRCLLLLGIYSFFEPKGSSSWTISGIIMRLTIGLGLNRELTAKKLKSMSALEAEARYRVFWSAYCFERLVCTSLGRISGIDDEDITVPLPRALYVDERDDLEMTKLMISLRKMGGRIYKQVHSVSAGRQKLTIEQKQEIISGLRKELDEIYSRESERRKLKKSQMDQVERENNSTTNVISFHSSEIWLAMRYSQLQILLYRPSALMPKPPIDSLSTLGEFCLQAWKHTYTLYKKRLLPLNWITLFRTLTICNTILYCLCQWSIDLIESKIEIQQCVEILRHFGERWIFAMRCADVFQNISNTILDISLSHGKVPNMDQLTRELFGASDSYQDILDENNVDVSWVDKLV
Assay: PBM E-score (8-mer binding enrichment) (E-score (-0.5 to 0.5)); higher = stronger / more preferred TF binding; most listed sequences are background and not binding sites
Conditions: protein concentration: 200 nM; construct: GST-full length
In short: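 GST-tagged yeast TFs (full-length or DNA-binding domain) were made by PURExpress in vitro transcription/translation and applied at about 100-200 nM to universal all-10-mer Agilent arrays. The arrays were made double-stranded by primer extension, on fresh or once-stripped slides. Bound protein was detected with fluorescent anti-GST, and scans were normalised with masliner. Each ungapped eight-base word, pooled with its reverse complement, received an E-score (modified Wilcoxon-Mann-Whitney statistic) from the Universal PBM Analysis Suite.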

Row | Sequence | PBM E-score
1 | AGACACCG | 0.436
2 | ACCCATGC | -0.221
3 | TCATCAGA | -0.111
4 | GGTGGTAC | 0.261
5 | AACCAACG | -0.0974
6 | TATTTCGA | 0.17
7 | AACGGAGC | 0.242
8 | CCCCGTAC | 0.243
9 | GGCTGCCA | 0.026
10 | CACACGTC | -0.101
11 | AAGTCACT | -0.157
12 | CAGATGTC | -0.00728
13 | ACTCCCGG | 0.271
14 | AAAATTGC | 0.149
15 | ATGGTTCC | 0.183
16 | CAATGGTG | -0.187
17 | CAACTTGC | -0.232
18 | CGACCGAG | 0.105
19 | GTGGGAGA | -0.168
20 | CATCGAGA | -0.206
21 | AAAATGTC | 0.0618
22 | CGCGCACA | 0.106
23 | AGCTCTGG | -0.108
24 | ACTCCGAC | 0.425
25 | ATGCTAAC | -0.0894

Row | Sequence | PBM E-score
26 | AGACCGCT | 0.345
27 | CCACCTAA | -0.0966
28 | CTCAGAAG | -0.211
29 | CATAACAA | -0.076
30 | ACGGGTGG | -0.0144
31 | TGATCAAA | -0.0246
32 | ATAGTAAA | -0.159
33 | CAACCCGG | 0.0495
34 | GAAATAGC | 0.107
35 | CCAGTCAC | 0.153
36 | CGTTACCC | -0.0513
37 | CTGCGGCA | 0.118
38 | AACCGCCA | 0.167
39 | GACGTACA | -0.0556
40 | GTTTCAGA | -0.0672
41 | AGCGAGCC | -0.015
42 | AGAGAGTC | -0.232
43 | ACCCAAGA | -0.193
44 | CCGTCGGC | 0.377
45 | ACCATTGG | -0.0637
46 | ACTCCCTC | -0.143
47 | ACTGACGG | 0.259
48 | GACGCATA | 0.131
49 | ACACACTC | -0.174
50 | AACGCCTA | -0.103

Row | Sequence | PBM E-score
51 | CATGAATA | -0.189
52 | AAGTGTGG | -0.0211
53 | ATCACACA | -0.247
54 | CATCGACA | -0.116
55 | ACCCCGAG | 0.351
56 | CGGGAACG | 0.251
57 | AGTCCTCG | -0.314
58 | AGGCCTGC | -0.089
59 | GGAGCGGA | 0.278
60 | GTGGGCAA | -0.0612
61 | AAGTCGCC | 0.0466
62 | CAGGCAAA | -0.145
63 | CCTGGACC | -0.283
64 | ACCCCACG | 0.0991
65 | ATCGGAAC | 0.217
66 | GCGCTAAC | 0.111
67 | CCAGAGCG | -0.033
68 | ACGTCTAC | -0.198
69 | AAATCCCC | 0.336
70 | AGCCTGAA | -0.0302
71 | ATGCTCGC | -0.221
72 | CTAACTAA | -0.127
73 | AACTTGGC | -0.103
74 | CCTGTATA | -0.0845
75 | ACATTAAA | -0.122

Row | Sequence | PBM E-score
76 | CCTATTTC | 0.192
77 | CGTACTCC | 0.0129
78 | GAGACGTA | -0.227
79 | TCTGAGCA | -0.254
80 | ACCCTATC | -0.0371
81 | ATTTGGAG | -0.11
82 | CGACAGGA | 0.175
83 | AAGCTTAG | -0.11
84 | ACCGATCG | 0.32
85 | AGTCATAT | -0.00205
86 | GTCAGCCA | -0.35
87 | ACACTACC | -0.0598
88 | AGTGCTAA | -0.043
89 | TACCTCCA | -0.0788
90 | GCGCGGTA | 0.29
91 | AGGGATTG | -0.163
92 | CAACAAGC | -0.0677
93 | ATATAGGC | 0.0115
94 | ACCGAAAA | 0.0944
95 | GGGGCTAA | 0.276
96 | GGGTGCTA | 0.0799
97 | AACCTTAA | -0.108
98 | AAAGTCTC | -0.145
99 | GCAATTGC | 0.0444
100 | TGATTTAA | 0.0984

Row | Sequence | PBM E-score
101 | CCACGTGA | 0.088
102 | ACAGCGAG | -0.0752
103 | AACGTGGG | -0.0838
104 | CAATGTTC | 0.0981
105 | AGCATCCG | 0.0966
106 | ATGCTCTG | -0.198
107 | CCTCTCGA | -0.271
108 | ACGGCGCC | 0.196
109 | GGATTGTA | -0.0877
110 | ACCTACGT | 0.0406
111 | CAACCCTG | -0.293
112 | CTACGAAG | -0.281
113 | GGGACTTA | 0.144
114 | CATGCACA | -0.234
115 | GCGCATGA | -0.113
116 | ATCGCACA | -0.0532
117 | CATATTGA | -0.264
118 | AGCCCGGA | 0.215
119 | CATTGGAG | -0.0911
120 | CAAACGCA | -0.142
121 | CATCTAAC | 0.0467
122 | CGGGTGCA | 0.181
123 | GTAACTAA | 0.064
124 | CCCCTGCA | -0.169
125 | GACATCAC | -0.00363

Row | Sequence | PBM E-score
126 | CAATGGCC | 0.0847
127 | CAGTGGGC | -0.161
128 | AATGACTC | -0.235
129 | AATGACAG | -0.356
130 | GACTTGCC | -0.164
131 | ACAAGAGA | -0.163
132 | CTAGGCAA | -0.0267
133 | ATACATTC | -0.228
134 | CATCACGA | -0.252
135 | CTCTGTCC | 0.0188
136 | CGTTAGAA | -0.00687
137 | ACTTCCTA | -0.176
138 | AGCGCGTC | -0.0918
139 | ACACTAAA | -0.0418
140 | GCAGCACC | 0.0741
141 | CTGGGTCC | 0.0474
142 | CCATGTCC | 0.101
143 | GGCCGCAA | 0.112
144 | CGAACGTA | -0.0671
145 | AATGTCGT | -0.169
146 | ACGGACCC | 0.216
147 | GCGAACCC | 0.0806
148 | AGAAAACT | -0.264
149 | ACGTAAAT | -0.0679
150 | AGAGACAC | -0.161

Row | Sequence | PBM E-score
151 | AGGGAGGA | -0.24
152 | ACTGTGGA | -0.265
153 | GATCCGCC | 0.196
154 | CGCCTGAC | 0.0936
155 | GTCGAGCA | -0.256
156 | ATTCCCTG | -0.0534
157 | GTAGCTAC | -0.258
158 | AGCAGTAG | -0.185
159 | AATGGTCC | 0.0798
160 | CCGCCTAG | 0.117
161 | AGACCAGA | -0.27
162 | AAGCGCAA | -0.0146
163 | CACATTAG | -0.207
164 | ATTGCTAA | -0.119
165 | CGGAACTA | 0.44
166 | GGATATCC | 0.131
167 | AGACGACT | -0.215
168 | GAATATCC | 0.161
169 | ACGCAACT | -0.0791
170 | CTTGGATC | -0.119
171 | CGGTGGAA | 0.233
172 | AGGGAAAG | -0.276
173 | GAAGATAA | -0.0198
174 | AACTTAAG | 0.123
175 | CAAGTCAG | -0.17

Row | Sequence | PBM E-score
176 | GAACTGCC | -0.118
177 | ATGGAGTC | -0.0879
178 | GACCGATA | 0.249
179 | ATCTGCGA | -0.118
180 | CCCGATCG | 0.346
181 | AGCACTAG | -0.135
182 | GCAGATAC | 0.00269
183 | CTGATATA | 0.0517
184 | GTTCATCA | -0.136
185 | ACGACTCT | -0.275
186 | CGATCACC | 0.0687
187 | CTGCGAAA | -0.0664
188 | AGCTGACT | -0.135
189 | CTGTAGTA | -0.043
190 | CATCTGGA | 0.0546
191 | CCGGCGTA | 0.345
192 | CCTTCGAG | -0.0947
193 | GATTTTTA | 0.144
194 | GATAGCCC | -0.0423
195 | AACGTGCA | -0.274
196 | AACCGTGC | -0.0876
197 | ACATTCTA | -0.138
198 | CCAATAGA | -0.222
199 | CGATACCA | -0.111
200 | GGGTATAA | 0.299

Row | Sequence | PBM E-score
201 | CTGACTAA | 0.0132
202 | CGGTAGCC | -0.00942
203 | GAAGAATC | 0.0713
204 | CTGTATCA | -0.168
205 | ATTGTTGG | -0.0204
206 | AGTGGGAA | 0.007
207 | CACTCTGA | -0.0883
208 | CAGTTCGA | -0.059
209 | GACTACCA | -0.0395
210 | CCGGGTAA | 0.212
211 | GAGGCTGC | -0.213
212 | CGAGCCCC | -0.0284
213 | AGCAATAG | 0.0872
214 | GTTCCTCA | -0.0537
215 | ACCGTGCG | 0.27
216 | CGGCTTAA | 0.351
217 | AACATACA | 0.102
218 | AGAGGCTA | -0.136
219 | GTAGGCAA | -0.246
